According to PubChem BioAssay AID2546 (National Center for Advancing Translational Sciences (NCATS), 2010):
Among all 310,000 compounds or so, about 11,000 (3.5%) were called active. This list was built around the results that the source calls inconclusive (neither active nor inactive); the mix of calls is not that of the screen. Calls follow the shape of the dose curve; as a rule, active = well fitted inhibition curve with a large enough effect; inconclusive = small, poorly fitted or top-dose-only effect, or effect the other way; inactive = flat fitted curve, though single readings scatter. Potencies of inconclusive entries are left out as doubtful fits.
Potency is read from the fitted curve at half-maximal effect; tags tell the direction and shape of the fitted curve.

Experiment: VP16 counterscreen qHTS for inhibitors of ROR gamma transcriptional activity;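 also: Gal4-VP16 expression switched on by copper sulfate through the metallothionein promoter; nearly all actives have a fitted effect of over 50% in size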
Conditions: Drosophila S2 Gal4-VP16 UAS-luciferase, luminescence, 20 h; series mostly up to 53.6 µM
For `CC(=O)c1ccc(NC(=S)NCCc2cccc(Cl)c2)cc1`, the Potency was inconclusive [inhibitor, single point]. In the case of `CCCCN(CC)S(=O)(=O)c1ccc(C(=O)Nc2nnc(-c3cccs3)o2)cc1`, the Potency is reported as active: 0.126 µM. With `COc1ccc(/C=N/N(C)c2cc(=O)n(C)c(=O)[nH]2)cc1OC` the Potency was “inactive”. With `N/C(=N\OC(=O)CN1C(=O)c2ccccc2C1=O)c1ccc(Br)cc1` the Potency was “inactive”. In the case of `COc1ccc(N2CCN(C(=O)COc3ccc4c(C)cc(=O)oc4c3C)CC2)cc1`, the Potency is reported as “inactive”. In the case of `O=P(CCCCCCCCCP(=O)(c1ccccc1)c1ccccc1)(c1ccccc1)c1ccccc1`, the Potency is reported as inconclusive [inhibitor, full curve, poor fit]. In the case of `Cc1[nH][nH]c(=O)c1C(c1ccc(O)c(Br)c1)c1c(C)[nH][nH]c1=O`, the Potency is reported as “inactive”. For `CC(C)(C)c1cc(NCc2ccccn2)n2ncc(-c3ccccc3)c2n1`, the Potency was active: 1.41 µM. For `COc1ccccc1C(=O)Nc1cccc(SC)c1`, the Potency was inconclusive [activator, partial curve]. For `CS(=O)(=O)N(Cc1ccccc1)c1ccc(C(=O)NCCSc2ccccn2)cc1`, the Potency was “inactive”. With `C/C(N)=C(/C#N)C(=O)COC(=O)CCSc1ccccc1Cl` the Potency was inconclusive [inhibitor, single point]. For `Oc1[nH]c2ccc(Br)cc2c1N=NC(=S)Nc1ccc(F)cc1`, the Potency was active: 7.94 µM. For `CC(=O)C1=C(C)NC(SCC(=O)c2ccc(Cl)cc2)=C(C#N)C1c1ccco1` (configuration not stated), the Potency was inconclusive [inhibitor, single point]. With `CCOC(=O)N1CCC(Nc2c(N3CCN(c4cccc(C(F)(F)F)c4)CC3)c(=O)c2=O)CC1` the Potency was inconclusive [inhibitor, partial curve, poor fit]. In the case of `CC(=O)Nc1cccc(NC(=O)c2cc(-c3ccccn3)nc3ccc(Cl)cc23)c1`, the Potency is reported as inconclusive [inhibitor, single point]. In the case of `COc1ccc(Cc2nnc(NC(=O)Nc3ccc(F)cc3)s2)cc1OC`, the Potency is reported as “inactive”. For `CN(C)c1ccc(/C=N\Nc2ccccn2)cc1`, the Potency was inconclusive [inhibitor, single point]. In the case of `O=C(Cc1cccc(C(F)(F)F)c1)NCc1cccc(Cl)c1`, the Potency is reported as “inactive”. For `O=C(N[C@@H](Cc1ccccc1)C(=O)OCc1ccccc1)c1nc[nH]c1C(=O)N1CCN(c2ccccc2)CC1`, the Potency was inconclusive [inhibitor, single point]. With `CCOC(=O)CC(=O)Nc1ccc(Br)cc1C(=O)O` the Potency was “inactive”. In the case of `Nc1nonc1-n1nnc(C(=O)N/N=C/c2ccccc2Cl)c1-c1ccccc1`, the Potency is reported as “inactive”. With `COCCN1C(=S)N[C@@H](c2ccccc2)C(C(=O)OC)=C1C` the Potency was “inactive”. In the case of `O=C(CN1CCCc2ccccc21)N/N=C/c1ccc(O)cc1O`, the Potency is reported as active: 22.4 µM. For `O=C(NNC1=C(C(=O)C(F)(F)F)CCC1)c1ccc(Br)cc1`, the Potency was inconclusive [inhibitor, single point]. In the case of `O=C(Nc1nnc(C2CC2)s1)C1Cc2ccccc2CN1S(=O)(=O)c1cccs1` (configuration not stated), the Potency is reported as inconclusive [inhibitor, single point]. In the case of `O=C(Nc1c(C(=O)c2ccccc2)oc2ccccc12)c1cc(-c2ccccc2O)n[nH]1`, the Potency is reported as inconclusive [inhibitor, single point]. For `O=[N+]([O-])c1ccc(Sc2ncc3ccccn23)nc1`, the Potency was inconclusive [inhibitor, single point]. With `COc1cc(C2CC(=O)Oc3cc(C)c(Br)c(C)c32)cc(OC)c1OC` (configuration not stated) the Potency was active: 5.62 µM. For `COc1cccc(/C=C/C(=O)c2ccc(NS(=O)(=O)c3ccc(C)cc3)cc2)c1`, the Potency was inconclusive [inhibitor, single point]. With `COc1ccc(C(=O)NC2CC(C)(C)Cc3c2cnn3-c2ccccc2)cc1OC` (configuration not stated) the Potency was inconclusive [inhibitor, single point]. For `CC1CCN(S(=O)(=O)c2ccc(NC(=O)C3CCN(C(=O)c4ccco4)CC3)cc2)CC1`, the Potency was inconclusive [inhibitor, single point]. In the case of `COC(=O)/C=C1\S/C(=N/N=C/c2ccc(Cl)cc2)NC1=O`, the Potency is reported as “inactive”. For `O=C(N/N=C/c1c[nH]c2ccccc12)c1ccc(Cl)cc1`, the Potency was inconclusive [inhibitor, single point]. In the case of `COc1cccc(-c2nc(NCCc3c[nH]c4ccc(OC)cc34)c3ccccc3n2)c1`, the Potency is reported as “inactive”. For `O=C(/C=C/c1ccc([N+](=O)[O-])cc1)NCCSCc1ccco1`, the Potency was inconclusive [activator, single point]. For `CCc1cc(C(=O)NC2CCCc3c2cnn3-c2cccc(C)c2C)n(C)n1` (configuration not stated), the Potency was inconclusive [inhibitor, partial curve, poor fit]. For `O=C(CSCc1ccccc1)N1CCN(C(=O)c2ccco2)CC1`, the Potency was inconclusive [activator, single point]. In the case of `N/C(=N\N=C\c1ccc(O)cc1)c1nonc1N`, the Potency is reported as inconclusive [inhibitor, single point]. In the case of `Cc1cccc(/C(N)=N/OC(=O)c2ccccc2Cl)c1`, the Potency is reported as active: 5.01 µM. For `N=c1oc2cc(O)ccc2cc1C(=O)Nc1ccc(Cl)cc1`, the Potency was active: 2 µM. In the case of `Cc1cc(=O)oc2cc(OCC(=O)NCCc3c[nH]c4ccc(F)cc34)ccc12`, the Potency is reported as “inactive”. In the case of `Cc1ccccc1OCCn1cc(C(=O)O)c2ccccc21`, the Potency is reported as inconclusive [inhibitor, partial curve]. In the case of `COC(=O)CSc1nnc(-c2ccccc2OC)o1`, the Potency is reported as “inactive”. In the case of `Oc1c(Cl)cc(Cl)cc1/C=C/c1ccc2cccc(O)c2n1`, the Potency is reported as active: 7.08 µM. For `Cn1c(SCc2ccccc2)nnc1-c1ccc(O)cc1`, the Potency was inconclusive [activator, single point]. For `COc1ccc(-c2noc(-c3ccc(C)cc3)n2)cc1`, the Potency was inconclusive [inhibitor, single point]. For `O=C1c2ccccc2C(Nc2ccc3c(c2)OCCO3)N1Cc1ccccc1` (configuration not stated), the Potency was inconclusive [inhibitor, single point].
